# Laboratory results reported in ChEMBL document CHEMBL4888484, “Replenishing the malaria drug discovery pipeline: Screening and hit evaluation of the MMV Hit Generation Library 1 (HGL1) against asexual blood stage Plasmodium falciparum ,using a nano luciferase reporter read-out” (2022).
# Screen size: about 150,000 compounds; about 540 (0.36%) showed an effect of 50% or more. The list shows a part of the results.
# Test system: Plasmodium falciparum
# Assay: Primary screen in NF54 nanoGlo assay, in single point, at 2uM, 72h; a lower Z score goes with more inhibition
# Type: functional, Erythrocyte
# Conditions: timepoint 72 hour
Compound,% Inhibition,Z score
Cc1cc(NC2C3CC2N(C(=O)OC(C)(C)C)C3)n2ncnc2n1 (stereo not drawn),7%,-0.83
CC1(C)CCCN(C(=O)c2cccc(Nc3cnccn3)c2)[C@@H]1C#N,-2%,0.28
O=C(C(c1ccccc1)c1ccccc1)N1CC(=O)N(C2CC2)C1,0%,0.01
CC(C)C(=O)Nc1c(-c2ccccn2)nsc1C(=O)NC[C@H]1CCCO1,-13%,1.25
Cc1ccc(CC(C)(C)Nc2ncnc3c2ncn3C)cc1,-3%,0.49
O=C(Nc1ccc(C2OC(=O)N(Cc3cccc(F)c3)C2C(=O)NCCc2ccccn2)cc1)c1ccco1 (stereo not drawn),-19%,2.7
Cc1nc(C)n(CCC(=O)Nc2ccccn2)n1,5%,-0.47
COc1ccc(CN[C@@H](C)c2cccc(NS(C)(=O)=O)c2)s1,-8%,0.73
COCCCN1CC2(CCN(c3nc(C)cc(C4CCC4)n3)CC2)CC1=O,-13%,2.38
O=C(O)[C@H]1CCCN1Cc1cc(Cl)ccc1OCc1cccnc1,-5%,0.58
CC(NC(=O)C1CC1c1ccc(C(C)C)cc1)C(=O)N1CCOCC1 (stereo not drawn),5%,-0.61
Cc1nnc(CNC2(c3ccc(C(F)(F)F)cc3)CCCC2)s1,-6%,0.96
CC(C)=CCC[C@H](C)CN1CCC(C(N)=O)CC1,5%,-0.73
Cc1ccc(CCn2c3c(c4ccccc42)CN(C)CC3)cn1.Cc1ccc(CCn2c3c(c4ccccc42)CN(C)CC3)cn1,6%,-1.12
CC(=O)NC(c1ccc(Cl)cc1)C1CCCCC1=O (stereo not drawn),-5%,0.64
O=C(CCC1CCN(Cc2ncon2)CC1)Nc1ccc2c(c1)OCCO2,-6%,1.01
CNC(=O)[C@@H]1CN(S(=O)(=O)c2ccc(Cl)s2)C[C@H]1c1nc(C)no1,-4%,0.65
NC(=O)[C@H]1CCN(C(=O)c2cc(-c3ccc(F)cc3)[nH]n2)C1,-11%,1.49
O=C(N/N=C1/Nc2ccccc2C1=O)c1ccc(Cl)cc1,0%,0.01
C[C@]1(CCc2ccccc2)CCN(C(=O)CCn2cncn2)C1,-1%,0.08
Cc1ccc(NC(=O)Cn2cccc2-c2nc(-c3ccc(Cl)cc3)no2)cc1F,-12%,1.49

Compound,% Inhibition,Z score
c1ccc(COc2ccccc2OCCNCCN2CCOCC2)cc1,-13%,1.49
CC[C@H]1CCN1C(=O)Cn1ccc2ccccc2c1=O,-9%,1.12
CC1(C)CN(S(=O)(=O)c2ccc3ccccc3c2)CC[S@@+]1[O-],-12%,1.37
C=CCN(CC1CC1)S(=O)(=O)C(C)(C)C,-15%,2.12
COc1ccc(S(=O)(=O)N2CCOCC2)cc1NC(=O)Cn1cc(C#N)ccc1=O,-3%,0.43
O=C(NCC1(c2ccc(F)cc2Cl)CC1)N1CC(=O)N(C2CC2)C1,-3%,0.6
CCOc1cccnc1N1CCN(S(=O)(=O)C2(C)CC2)CC1,0%,-0.03
C=CCc1cc(CN2CCC[C@H]2c2nc(C)no2)cc(OC)c1OC(C)C,-2%,0.2
COCCNC(=O)c1ccc(N[C@@H](C)c2ccccn2)nc1,12%,-1.6
CCC(=O)N(Cc1ccc(OC)c(OC(C)C)c1)C1CCCC1,-4%,0.58
CCc1c(C)sc2c1CCN(CC(=O)Nc1ccc(OC)cc1)[C@@H]2c1ccccc1,-16%,1.53
Cc1ccc(Cl)cc1NC(=O)Cc1csc(NC(=O)[C@@H]2CCC(=O)N2)n1,-12%,1.43
N#Cc1cccc(C(=O)N2CCCN(c3nc4ccccc4nc3-c3ccccc3)CC2)c1,-16%,2.16
CN(Cc1[nH]c2ccccc2c1Cl)C[C@H]1CC(=O)N(C(C)(C)C)C1,-1%,0.08
O=C(Cc1coc(-c2ccc(F)cc2)n1)N1CCCC[C@@H]1CCO,-2%,0.33
Cc1cc(C(=O)N(CC2CCN(C3Cc4ccccc4C3)CC2)C[C@H]2CCCO2)nc(N)n1,7%,-0.8
COC(CS(=O)(=O)Nc1ccc(C)cc1C(=O)C(F)(F)F)C1CCOC1 (stereo not drawn),-1%,0.16
CCc1nccn1CCCNC(=O)N(C)Cc1nc2cc(Cl)ccc2[nH]1,-3%,0.34
COCC[C@]1(NCc2c(C)nc3scc(C4CC4)n23)CCOC1,-5%,0.97
Cc1cc(C)n(CCNC(=O)c2ccncc2)c(=O)n1,1%,-0.19
O=C(NCCCOc1cccnc1)c1cn2c3c(cccc3c1=O)CC2,-7%,1.15

Compound,% Inhibition,Z score
Cc1oc(C(C)C)cc1C(=O)N(C)Cc1ncon1,29%,-3.32
COc1ccc(OC)c([C@H]2N(Cc3ccc(F)cc3)CCCN2Cc2ccccc2Cl)c1,-3%,0.37
CCOc1cc(CNc2cccc3ccccc23)cc(Br)c1OCC(=O)NC(C)(C)C,56%,-9.96
COc1ccc(CN2CC(C(=O)O)C2)c2c(OC)cccc12,-14%,1.38
COCCC(=O)NC1CCC(CO)CC1 (stereo not drawn),-4%,0.7
COc1cc(O)ccc1-c1nccn1[C@H]1CCN(Cc2ccccc2)C1,-7%,1.57
CCN1C[C@@H](CN(C)C(=O)c2cn(C(c3ccccc3)c3ccccc3)nn2)CC1=O,-16%,2.7
O=C(CN1CCCCc2cc(Br)ccc21)N1CCC1,3%,-0.44
CCS(=O)(=O)NCCNC(=O)c1cc(C(=O)OC)ccn1,-16%,1.84
Cc1cc(N2CCOC(C)C2)nc(N2CCOC(C)C2)c1C#N (stereo not drawn),-6%,1.19
CC(C)(C)C(=O)[C@H](C#N)c1ccccn1,-2%,0.34
CCOc1ncccc1-c1nc(CCNC(=O)OC(C)(C)C)no1,-15%,1.6
O=C(CCC1CCCCC1)N1CC[C@H](n2ccnn2)C1,-1%,0.18
Cc1ccc(CS(=O)(=O)N[C@@]23COC[C@@H]2C3)cc1,0%,-0.08
O=S1(=O)CCC(Nc2nc3ccccc3s2)CC1,-13%,2.43
C=Cc1ccc(Cn2cc(C(=O)c3ccccc3)c(=O)c3ccc(C)nc32)cc1,-10%,1.26
Cc1cnc([C@@H](NCc2nnc(-c3cccs3)o2)C2CC2)s1,-6%,0.64
Cc1ccc2nc(CN3CCS(=O)(=O)C(C)C3C)cn2c1 (stereo not drawn),-13%,1.17
CCOc1ccc2c(c1)C=C(C(=O)NC[C@H](C)N1CCOCC1)CO2,-7%,1.44
CN(C)c1cc(NC(=O)c2cnn3c2CCC3)cc(C(F)(F)F)c1,-2%,0.22
CCO[C@@H](C)C(=O)NCc1cc(CC)no1,-4%,0.73

Compound,% Inhibition,Z score
NS(=O)(=O)C1(CNc2ccncc2C(F)(F)F)CCC1,0%,-0.02
CN(C)c1cc(C(=O)NC2CCN(S(C)(=O)=O)CC2)ccn1,-11%,1.16
Cc1ccccc1N1CCN(C(=O)c2ccc3ncnc(N4CCCC4)c3c2)CC1,1%,-0.19
CN1C(=O)C2(CCN(C(=O)COc3ccccc3)CC2)C[C@H]1C(=O)NC1CCCC1,-8%,0.98
Cc1cc(C(=O)N[C@H]2CN(S(C)(=O)=O)C[C@@H]2C(C)C)no1,-6%,0.55
CC(CS(C)(=O)=O)NC1CCCCC1Cc1ccccc1 (stereo not drawn),3%,-0.54
O=C(Cn1nc(N2CCCCCC2)c2ccccc2c1=O)Nc1ccc(Cl)cc1,-2%,0.29
COc1ccc(NC(=O)c2ccc3nn(CC(=O)Nc4ccc(F)cc4)c(=O)n3c2)cc1,-26%,2.29
Cc1ccc(-c2cccc(C(=O)N3CCC[C@H](c4cc(O)ncn4)C3)c2)nn1,1%,-0.13
Cc1nn(C)c(C)c1S(=O)(=O)N1CC[C@]2(CCN(c3cccnc3)C2)C1,38%,-1.28
Cc1nc(CCNC(=O)c2cn(CCN3CCCCC3)nn2)nc2c1CCC2,-4%,0.5
CN(Cc1ccccc1)C(=O)[C@H]1CCc2n[nH]c(=O)n2CC1,6%,-0.99
O=C(Nc1cccc2ccccc12)C1CCN(S(=O)(=O)c2ccc(Cl)cc2)CC1,-8%,0.94
Cc1cncc(NCc2cnn(C(C)(C)C)c2)c1,-13%,2.06
O=C(NCCc1ccccc1)c1c(-c2ccccc2)c(-c2ccccc2)n[nH]c1=O,-3%,0.42
CC(C)c1ccc(C(=O)N2CCOCC2C2CCCCC2=O)c(O)c1 (stereo not drawn),-4%,0.67
CCC[C@]1(O)CCC12CCN(C(=O)COCc1ccccc1)CC2,0%,0.05
CCCn1nccc1C(=O)N1CCN2CCN(C)C[C@H]2C1,-6%,0.8
Cc1cc(C(=O)N(CC2CCC2)C[C@H]2CCCO2)cc(C)n1,-13%,1.43
Cc1nc(N)ncc1C(=O)N1CC[C@H]1c1ccc(F)cc1,-3%,0.42
O=C(NCC1(CO)CC1)NC1CCCC1Oc1ccccc1 (stereo not drawn),-10%,1.3
